{"source": "paper PMC5007513", "about": "“Discovery of new diketopiperazines inhibiting Burkholderia cenocepacia quorum sensing in vitro and in vivo” (Scientific Reports, 2016)", "key": {"[1]": {"tested_on": "B. cenocepacia J2315", "test": "MIC in planktonic cells, 2-fold microdilution with resazurin", "details": "for bactericidal or bacteriostatic activity: 1 to 128 μg/ml, planktonic cells; for MIC: Burkholderia cenocepacia, J2315, 48 h, read-out: MIC against B. cenocepacia"}, "[2]": {"tested_on": "B. cenocepacia J2315 biofilms", "test": "Biofilm assay (confocal microscopy)"}, "[3]": {"tested_on": "B. cenocepacia J2315", "details": "for C. elegans survival: infected with B. cenocepacia J2315; for protection of C. elegans against infection: infection with B. cenocepacia J2315"}, "[4]": {"details": "1 μM, versus untreated control biofilm"}, "[5]": {"details": "10 μM, 25 μM and 100 μM, 24 h biofilm"}}, "note": "Several values for one entry are separate records, joined by “and”; a condition that tells them apart may be missing. Identical values can stand only once. Like-named read-outs stand apart in the source and are kept apart here."}
{"smiles": "O=C1C=CC(=O)C(C2NC(=O)CNC2=O)=C1", "note": "(stereo not shown) [8a]", "values": [{"measurement": "bactericidal or bacteriostatic activity", "setting": "[1]", "result": "did not show any bactericidal or bacteriostatic activity"}, {"measurement": "MIC", "setting": "[1]", "result": "> 128", "unit": "µg/mL"}]}
{"smiles": "O=C1CNC(=O)C(c2cc(O)ccc2O)N1", "note": "(stereo not shown) [7a]", "values": [{"measurement": "bactericidal or bacteriostatic activity", "setting": "[1]", "result": "did not show any bactericidal or bacteriostatic activity"}, {"measurement": "MIC", "setting": "[1]", "result": "> 128", "unit": "µg/mL"}]}
{"smiles": "CC(C)[C@H]1NC(=O)C(c2cc(OCc3ccccc3)ccc2OCc2ccccc2)NC1=O", "note": "(stereo partly shown) [6c]", "values": [{"measurement": "bactericidal or bacteriostatic activity", "setting": "[1]", "result": "did not show any bactericidal or bacteriostatic activity"}, {"measurement": "MIC", "setting": "[1]", "result": "> 128", "unit": "µg/mL"}]}
{"smiles": "O=C1N[C@H](Cc2ccccc2)C(=O)NC1c1cc(OCc2ccccc2)ccc1OCc1ccccc1", "note": "(stereo partly shown) [6b]", "values": [{"measurement": "bactericidal or bacteriostatic activity", "setting": "[1]", "result": "did not show any bactericidal or bacteriostatic activity"}, {"measurement": "MIC", "setting": "[1]", "result": "> 128", "unit": "µg/mL"}]}
{"smiles": "CC(=O)Oc1ccc(OC(C)=O)c(C2C(=O)N(C(C)=O)CC(=O)N2C(C)=O)c1", "note": "(stereo not shown) [compound 9]", "values": [{"measurement": "bactericidal or bacteriostatic activity", "setting": "[1]", "result": "did not show any bactericidal or bacteriostatic activity"}]}
{"smiles": "O=C1C=CC(=O)C(C2NC(=O)C(Cc3ccccc3)NC2=O)=C1", "note": "(stereo not shown) [8b]", "values": [{"measurement": "bactericidal or bacteriostatic activity", "setting": "[1]", "result": "did not show any bactericidal or bacteriostatic activity"}, {"measurement": "MIC", "setting": "[1]", "result": "> 128", "unit": "µg/mL"}, {"measurement": "biofilm morphology", "setting": "[2]; [4]", "result": "minor differences"}, {"measurement": "biofilm morphology", "setting": "[2]; [5]", "result": "less structured, contained fewer cells and were unable to colonize the entire surface of the well"}, {"measurement": "C. elegans survival", "setting": "[3]; 1 μM, 24 h", "result": "84 ± 2", "unit": "%"}, {"measurement": "C. elegans survival", "setting": "[3]; 1 μM, 48 h", "result": "50 ± 6", "unit": "%"}, {"measurement": "C. elegans survival", "setting": "[3]; 5 μM, 24 h", "result": "89 ± 4", "unit": "%"}, {"measurement": "C. elegans survival", "setting": "[3]; 5 μM, 48 h", "result": "55 ± 9", "unit": "%"}, {"measurement": "C. elegans survival", "setting": "[3]; 10 μM, 24 h", "result": "93 ± 7", "unit": "%"}, {"measurement": "C. elegans survival", "setting": "[3]; 10 μM, 48 h", "result": "70 ± 7", "unit": "%"}, {"measurement": "C. elegans survival", "setting": "[3]; 25 μM, 24 h", "result": "91% and 91 ± 5 %"}, {"measurement": "C. elegans survival", "setting": "[3]; 25 μM, 48 h", "result": "75 ± 3", "unit": "%"}, {"measurement": "protection of C. elegans against infection", "setting": "[3]", "result": "significantly protected"}]}
{"smiles": "CC(C)C1NC(=O)C(C2=CC(=O)C=CC2=O)NC1=O", "note": "(stereo not shown) [8c]", "values": [{"measurement": "bactericidal or bacteriostatic activity", "setting": "[1]", "result": "did not show any bactericidal or bacteriostatic activity"}]}
{"smiles": "O=C1N[C@H](Cc2ccccc2)C(=O)NC1c1cc(O)ccc1O", "note": "(stereo partly shown) [7b]", "values": [{"measurement": "bactericidal or bacteriostatic activity", "setting": "[1]", "result": "did not show any bactericidal or bacteriostatic activity"}, {"measurement": "MIC", "setting": "[1]", "result": "> 128", "unit": "µg/mL"}]}
{"smiles": "CC(C)[C@H]1NC(=O)C(c2cc(O)ccc2O)NC1=O", "note": "(stereo partly shown) [7c]", "values": [{"measurement": "bactericidal or bacteriostatic activity", "setting": "[1]", "result": "did not show any bactericidal or bacteriostatic activity"}, {"measurement": "MIC", "setting": "[1]", "result": "> 128", "unit": "µg/mL"}]}
{"smiles": "O=C1CNC(=O)C(c2cc(OCc3ccccc3)ccc2OCc2ccccc2)N1", "note": "(stereo not shown) [6a]", "values": [{"measurement": "bactericidal or bacteriostatic activity", "setting": "[1]", "result": "did not show any bactericidal or bacteriostatic activity"}, {"measurement": "MIC", "setting": "[1]", "result": "> 128", "unit": "µg/mL"}, {"measurement": "biofilm morphology", "setting": "[2]; [4]", "result": "minor differences"}, {"measurement": "biofilm morphology", "setting": "[2]; [5]", "result": "less structured, contained fewer cells and were unable to colonize the entire surface of the well"}, {"measurement": "C. elegans survival", "setting": "[3]; 1 μM, 24 h", "result": "73 ± 10", "unit": "%"}, {"measurement": "C. elegans survival", "setting": "[3]; 1 μM, 48 h", "result": "56 ± 11", "unit": "%"}, {"measurement": "C. elegans survival", "setting": "[3]; 5 μM, 24 h", "result": "86 ± 6", "unit": "%"}, {"measurement": "C. elegans survival", "setting": "[3]; 5 μM, 48 h", "result": "66 ± 5", "unit": "%"}, {"measurement": "C. elegans survival", "setting": "[3]; 10 μM, 24 h", "result": "88 ± 17", "unit": "%"}, {"measurement": "C. elegans survival", "setting": "[3]; 10 μM, 48 h", "result": "74 ± 11", "unit": "%"}, {"measurement": "C. elegans survival", "setting": "[3]; 25 μM, 24 h", "result": "91% and 91 ± 9 %"}, {"measurement": "C. elegans survival", "setting": "[3]; 25 μM, 48 h", "result": "82 ± 5", "unit": "%"}, {"measurement": "protection of C. elegans against infection", "setting": "[3]", "result": "significantly protected"}]}
